Assay results published in article PMC4336329 (PLoS ONE, 2015).
The whole screen tested about 310,000 compounds, of which about 14,000 (4.5%) showed an effect of 50% or more. The effect is printed as a negative number. This is one part of the list.

target: human ether-à-go-go-related gene (hERG) potassium channel (human, UniProt Q12809); test: primary screen, population patch clamp on CHO cells stably expressing hERG
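Further: peak tail current of the secondary pulse compared with the same well before compound.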

Sequence of human ether-à-go-go-related gene (hERG) potassium channel (Q12809 whole entry, looked up): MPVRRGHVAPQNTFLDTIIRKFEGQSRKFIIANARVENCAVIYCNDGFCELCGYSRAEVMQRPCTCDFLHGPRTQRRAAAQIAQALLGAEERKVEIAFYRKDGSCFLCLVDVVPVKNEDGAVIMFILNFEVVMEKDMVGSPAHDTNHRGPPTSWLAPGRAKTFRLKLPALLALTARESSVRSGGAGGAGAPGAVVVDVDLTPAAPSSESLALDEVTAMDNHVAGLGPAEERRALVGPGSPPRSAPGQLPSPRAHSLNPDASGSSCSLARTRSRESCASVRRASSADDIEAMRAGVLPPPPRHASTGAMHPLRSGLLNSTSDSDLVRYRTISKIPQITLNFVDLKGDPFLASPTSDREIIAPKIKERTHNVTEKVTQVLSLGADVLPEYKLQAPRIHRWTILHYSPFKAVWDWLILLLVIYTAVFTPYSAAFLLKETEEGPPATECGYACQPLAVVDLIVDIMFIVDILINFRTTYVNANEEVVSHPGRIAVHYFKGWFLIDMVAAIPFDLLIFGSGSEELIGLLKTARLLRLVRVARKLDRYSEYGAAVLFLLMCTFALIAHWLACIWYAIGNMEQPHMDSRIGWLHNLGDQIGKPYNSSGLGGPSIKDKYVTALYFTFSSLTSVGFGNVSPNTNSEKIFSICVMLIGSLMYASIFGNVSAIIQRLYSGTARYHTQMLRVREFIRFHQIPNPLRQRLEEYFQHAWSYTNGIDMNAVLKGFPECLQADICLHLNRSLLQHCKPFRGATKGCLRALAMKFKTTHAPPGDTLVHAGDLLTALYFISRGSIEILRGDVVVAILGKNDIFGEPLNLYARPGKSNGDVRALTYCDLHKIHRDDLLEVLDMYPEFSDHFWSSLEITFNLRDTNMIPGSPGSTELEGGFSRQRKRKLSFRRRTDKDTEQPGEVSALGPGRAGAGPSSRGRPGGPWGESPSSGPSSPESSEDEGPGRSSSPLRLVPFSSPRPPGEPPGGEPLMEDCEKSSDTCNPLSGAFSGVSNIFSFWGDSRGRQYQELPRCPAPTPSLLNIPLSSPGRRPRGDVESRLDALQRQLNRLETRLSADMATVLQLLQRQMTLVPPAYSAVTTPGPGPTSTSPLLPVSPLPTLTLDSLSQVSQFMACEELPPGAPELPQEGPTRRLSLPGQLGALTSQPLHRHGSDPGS

SMILES | hERG current change (%, negative = inhibition) at 10uM
CC(C)(C)c1ccc(C(=O)Nc2ccc3c(c2)C(=O)NC3=O)cc1 | 25.6%
O=C(Cn1c(=O)oc2cc(S(=O)(=O)NCc3ccccc3)ccc21)NCc1ccco1 | -1.18%
CCOC(=O)c1cnc2ccccc2c1NCCO | -34.8%
COc1cc([C@@H]2CC=C(C(=O)O)[C@H](c3ccccc3)N2S(=O)(=O)c2ccc(C)cc2)cc(OC)c1OC | 29.7%
COc1cc2cc(CN(Cc3ccc4c(c3)OCO4)C(=O)c3ccco3)c(=O)[nH]c2cc1OC | -7.93%
O=C(Nc1ccc(NC(=O)c2sc3ccccc3c2Cl)cc1Cl)c1ccco1 | 0.689%
CCn1c(SCC(N)=O)nnc1C(C)C | 14.7%
Cc1ccccc1N(CC(=O)N/N=C/c1cc(Br)c(C)o1)S(C)(=O)=O | -0.797%
CC(=O)N1CCOc2ccc(S(=O)(=O)NCCc3ccc(Cl)cc3)cc21 | -12.3%
COc1ccc(-c2nc(SC(C)C(=O)Nc3ccc(NC(C)=O)cc3)n[nH]2)cc1 (centres unmarked) | 10.4%
CC1CCCC(C)N1C(=O)COC(=O)c1cc(S(=O)(=O)N2CCOCC2)ccc1Cl (centres unmarked) | -23.3%
CCOc1cc(C(=O)Nc2cc3c(cc2N2CCCC2)n(C)c(=O)n3C)cc(OCC)c1OCC | -1.12%
CC(C)(C)NC(=O)CCN(/N=C/c1ccccc1F)C1=NS(=O)(=O)c2ccccc21 | 15.7%
OCCC1CN(Cc2nc3ccccc3s2)CCN1C1CCCC1 (centres unmarked) | -48.9%
N=c1c2c(-c3ccccc3)c(-c3ccccc3)oc2ncn1CCCN1CCOCC1 | -79.2%
COc1ccccc1C/C(N)=N/OC(=O)COc1cc(C)cc(C)c1C | 0.985%
CC(C)(C)N(Cc1ccccc1)C(=O)CSc1ncn[nH]1 | 11.2%
Cc1cnc(CNC(=O)CC2C(=O)NCCN2Cc2ccccc2C(F)(F)F)cn1 (centres unmarked) | 16.8%
O=C(CSc1nc2ccccc2n1Cc1ccc(Cl)cc1)N/N=C/c1ccc(C(=O)O)cc1 | 17%
CC(=O)Nc1ccc(C(=O)Cn2nnc3ccccc3c2=O)cc1 | 6.68%
C=C(C)COc1ccc2oc(C)c(C(=O)OCCOC)c2c1 | 16%
Cc1cc(C(=O)COc2ncnc3sccc23)c(C)n1C1CC1 | 11.1%
COc1ccc(CCNCc2ccc(Br)cc2)cc1OC.O=C(O)C(=O)O | -62.9%
